The record followed here is the RNAGym collection of RNA variant scans (doi:10.7554/elife.90254).

Read counts are not given, so values of variants with three or more changes are uncertain.

The chains are these.
B1: LINE1-mini (parent)
chain: GGCAGAGCUCAACACAGCGUGGCAAAGUGGCUGUGGCUAGACUGCC

Variants of B1 are the subject of the data set. Put plainly: self-cleavage, relative activity (ratio to wild type); higher = more cleavage; in vitro, sequencing; the parent is a self-cleaving ribozyme.
As for GGUAGAGCUAAACACAGCGAGGCAAAGUGGUUGUGGCUAGACUGCC [C3U C10A U20A C31U], the self-cleavage is 0.06.

As to GGUAGAGGUCAUCACAGCGUGGCAAAGUGGCAGUGGCUAGACUGCC [C3U C8G A12U U32A], the self-cleavage came out at 0.

As for GGUAGAGCUCAACACAGCGUGGCAACGUGGCUGUGGCCAGACUGCC [C3U A26C U38C], the self-cleavage stood at 0.41.

For GGUAGAGCUACACACAGUGUGGCAAAGUGGCUGUGGCUAGACUGCC [C3U C10A A11C C18U], the self-cleavage is 0.02.

As for GGUAGAGAUCAACACAGCGUGGGAAAGUGGCUGUGGCUAGACUGCC [C3U C8A C23G], the self-cleavage came to 0.33.

With GGUAGAGCUGAUCACAGCGUGGCAAGGUGGCUGUGGUUAGACUGCC [C3U C10G A12U A26G C37U], the self-cleavage came out at 0.

As for GGUAGAGUUCAACACAGCGUGGCAAAGUGGCUUUGGGUAGACUGCC [C3U C8U G33U C37G], the self-cleavage came out at 0.1.

With GGUAGAGCUCAACUCAGAGUUGCAAAGUGGCUGUGGCUAGACUGCC [C3U A14U C18A G21U], the self-cleavage stood at 0.08.

With GGUAGAGUUCAACACAGCGUGGCACACUGGCUGUGGUUAGACUGAC [C3U C8U A25C G27C C37U C45A], the self-cleavage came out at 0.08.

In the case of GGUAGAGCUAAACACAGCGUGGCUAAGUGGCUGUGGCUAGACUGCC [C3U C10A A24U], the self-cleavage was 0.42.

Regarding GGUAGAGCUCAACACAGCGUGGCAAUGUGACUGUGGCUAGACUUCC [C3U A26U G30A G44U], the self-cleavage was 0.08.

For the variant GGUAGAGCUAAACACAGCGUUGCAAAGUGGCUGUGGCUAGGCUGCC [C3U C10A G21U A41G], the self-cleavage came to 0.04.

Regarding GGUAGAGCUCAACACGGCGUGGCAAAGUGACUGUGGCAAGUCUGCC [C3U A16G G30A U38A A41U], the self-cleavage is 0.01.

For GGUAGAGCUCAACACGGCUUGGCAAAGUGGCUGUGGCGAGACUACC [C3U A16G G19U U38G G44A], the self-cleavage was determined as 0.02.

As for GGUAGAGCUCAACGCAGCGUCGGAAAGUGGCUGUGGCUAGACUGCC [C3U A14G G21C C23G], the self-cleavage is 0.23.

Regarding GGUAGAGCUCAACACCGCCUGGCAAAGAGGCUGUGGCUAGACUGCC [C3U A16C G19C U28A], the self-cleavage worked out at 0.07.

Consider GGUAGAGCUCAACACAGCGUGGCAUAGUGGGUGUGGAUAGACUCCC [C3U A25U C31G C37A G44C], for which the self-cleavage came out at 0.04.

As for GGUAGAGCUCAACACAGCGUGGCCAAGUGACUGUGGCUAGACUGCC [C3U A24C G30A], the self-cleavage was determined as 0.98.

On to GGUAGAGCUCAACACAGCGUGGCUAAGUGGCUGUGGCUAGACUGAC [C3U A24U C45A], for which the self-cleavage was 0.13.

As to GGUAGAGCUCAACACGGCCUGGCAAAGUGGCUGUGGCUAGACUGCC [C3U A16G G19C], the self-cleavage came to 0.14.

In the case of GGUAGAGAUCAACACAGCGUGGCAAAGUGACUGUGGCUAGACUGCC [C3U C8A G30A], the self-cleavage worked out at 0.22.

On to GGUAGAGAUCAACACAGCGUGGCAAAGUGUCUGUGGCUAGACUGCC [C3U C8A G30U], for which the self-cleavage was 0.18.

Turning to GGUAGAGCUAAACACAGCGUGUCAAAGUGGAUGUGGCUAGACUGCC [C3U C10A G22U C31A], the self-cleavage stood at 0.01.

As to GGUAGAGAUCAACACAGCUUGGCAAAGUGGCUGCGGCUAGACUGCC [C3U C8A G19U U34C], the self-cleavage worked out at 0.33.

Consider GGUAGAGCUACACACAUCGUGGCAAAAUGGCUGUGGCUAGACUGCC [C3U C10A A11C G17U G27A], for which the self-cleavage is 0.04.

On to GGUAGAGCUCAACACAGCGUGGCAAUGUGGCUGUGACUAGACUGCC [C3U A26U G36A], for which the self-cleavage was determined as 0.79.

For GGUAGAGCUCAACACAGCGUGGCGAAGUGGCUGUGGCUAAACUGCC [C3U A24G G40A], the self-cleavage is 0.07.

Consider GGUAGAGGUCAACACAGCGUGGCAAAGUGGCUGUGGCGAGACUGCC [C3U C8G U38G], for which the self-cleavage is 0.13.

For GGUAGAGUUCAACCCAGCGUGGCAAAGUGGCGCUGGCUAGACUGCC [C3U C8U A14C U32G G33C], the self-cleavage came out at 0.03.

For the variant GGUAGAGCUGUACACAGGGUGGCAAAGUUGCUGUGGCCAGACUGCC [C3U C10G A11U C18G G29U U38C], the self-cleavage is 0.01.

For the variant GGUAGAGCUGAACACAGCGUGGCAAUAUGGCUGGGGCUGGACUGCC [C3U C10G A26U G27A U34G A39G], the self-cleavage was determined as 0.02.

On to GGUAGAGUUCAACACAGCGUGGCAAAGUGGCUGUGGCUUGACUGCC [C3U C8U A39U], for which the self-cleavage was 0.07.

As to GGUAGAGCUCAACACGGCGUGGCAAAGUGGUUGUGGCUAGACUGCC [C3U A16G C31U], the self-cleavage amounted to 0.04.

For the variant GGUAGAGCUCAACACAGCGUGGCACAGUGGCUGUAGCUAGACUGCA [C3U A25C G35A C46A], the self-cleavage came out at 0.02.

In the case of GGUAGAGAUCAACACAGCGUGGCAAAGUGGCUGUGCCUAAACUGCC [C3U C8A G36C G40A], the self-cleavage was determined as 0.08.

GGUAGAGCUCAACACUGCGUGGCAAAGUGGAUGUGGCUAGACUGCC [C3U A16U C31A]: the self-cleavage worked out at 0.02.

With GGUAGAGCUCAACACAGCGUGGCAAAGUGGCUGUGGCUUUACUGCC [C3U A39U G40U], the self-cleavage was found to be 0.05.

For GGUAGAGAUCAACACAACGUUGCAAACUGGCUGUCUCUAGAUUGCC [C3U C8A G17A G21U G27C G35C G36U C42U], the self-cleavage stood at 0.07.

For GGUAGAGCUCAACACAGCGUGGCAAAGUGGCUGUGGCUCGACUCCC [C3U A39C G44C], the self-cleavage came to 0.09.

Regarding GGUAGAGCUAAACACAGCGUGGCAAAGUGGCUGUCGCUAGACUGCC [C3U C10A G35C], the self-cleavage was 0.03.

GGUAGAGCUCAACACAGCGUGGCAAUGUGGCUGUGGGUAGACUGCC [C3U A26U C37G]: the self-cleavage was 0.06.

Regarding GGUAGAGGUCAACAUAGCUUGGCAAAGUGGCGGUGGCUAGACUGCC [C3U C8G C15U G19U U32G], the self-cleavage came out at 0.03.

For GGUAGAGUUCAACACAGCCUGGCAAAGUCGCUGAGGCUAGACUUCC [C3U C8U G19C G29C U34A G44U], the self-cleavage came out at 0.05.

In the case of GGUAGAGCUCAACACAGCGUGGCGAAGUGGCUGUGGAUAGCCUGCC [C3U A24G C37A A41C], the self-cleavage stood at 0.27.

Turning to GGUAGAGCUCAACACUGUGUGGCAAAGUGGCUGUGGCUAGACUGUC [C3U A16U C18U C45U], the self-cleavage was determined as 0.

On to GGUAGAGAUCAACACAGCGUGGCAAAGUGGUUGUGGCUAGACUGCC [C3U C8A C31U], for which the self-cleavage came to 2.62.

Turning to GGUAGAGCUCAACACAGCGUGGCACAGUGGCUGUGUAUAGACUUCC [C3U A25C G36U C37A G44U], the self-cleavage came to 0.21.

For GGUAGAGCUCAACACUGCGUGGCAAAGUGGCUGUGGCUUGACUGCC [C3U A16U A39U], the self-cleavage stood at 0.08.

Take GGUAGAGAUCAAGACAGCGUGGCAAAGUGGCUGUGGCUAGACUGCC [C3U C8A C13G]: the self-cleavage was determined as 0.63.

Regarding GGUAGAGUUCAACACAGCGUGGCAAAGCGGCUGUGGCUAGACUGCC [C3U C8U U28C], the self-cleavage came to 0.13.

Turning to GGUAGAGCUAAACACAGCCUGGCAAAGUGGCUGUGGCUAGACUGCC [C3U C10A G19C], the self-cleavage was 0.03.

As to GGUAGAGCUAAACACAGCUUGGCAAAGUGGCUGUGGCUAGACUGCC [C3U C10A G19U], the self-cleavage came out at 0.06.

GGUAGAGCUCAACACUGCGUGGCAAAGUGGCUGUGGCUUGACUGAC [C3U A16U A39U C45A]: the self-cleavage came out at 0.1.

For GGUAGAGCUCAACACAGCGUGGCAACGAGGCUGUGGCUAGACUGUC [C3U A26C U28A C45U], the self-cleavage stood at 0.15.

With GGUAGAGCUCAACACUGCGUGGCAAUGUGCCUGUGGCCAGACUGCC [C3U A16U A26U G30C U38C], the self-cleavage was determined as 0.21.

Take GGUAGAGCUCAACACGGCGUUGCAAAGUGGCUGUGGCUAGUCUGCC [C3U A16G G21U A41U]: the self-cleavage turned out to be 0.61.
